# From the antibiotic and cytotoxicity screens of Wong et al. (2023)
# This is one part of the list.
# What was measured:
# HSkMC = human skeletal muscle cells; assay: cytotoxicity call (relative viability < 0.9); conditions: 10 µM
# HepG2 = assay: cytotoxicity call (relative viability < 0.9); conditions: 10 µM
# S. aureus RN4220 = assay: growth inhibition call (relative growth <= 0.2); conditions: 50 µM
Compound,cytotoxicity call (HSkMC),cytotoxicity call (HepG2),growth inhibition call (S. aureus RN4220)
COc1ccc(S(=O)(=O)N(C)C[C@H]2OCCCC[C@H](C)Oc3ccc(NC(=O)Nc4ccc(C(F)(F)F)cc4)cc3C(=O)N([C@H](C)CO)C[C@@H]2C)cc1,inactive,active,inactive
C=CCNC(=O)[C@@H]1[C@H]2C(=O)O[C@H](c3ccccc3)[C@H](c3ccccc3)N2[C@H](c2ccccc2OCCO)[C@@]12C(=O)N(C(=O)OCCOC)c1ccc(C#Cc3ccc(OC)cc3)cc12,inactive,inactive,inactive
C[C@@H]1CN([C@@H](C)CO)C(=O)Cc2cc(NC(=O)Cc3ccccc3)ccc2O[C@@H]1CN(C)S(=O)(=O)c1ccc(F)cc1,inactive,inactive,inactive
Cc1ccc(S(=O)(=O)Nc2ccc3c(c2)C(=O)N([C@@H](C)CO)C[C@@H](C)[C@@H](CN(C)C(=O)CCC(F)(F)F)OCCCC[C@H](C)O3)cc1,inactive,inactive,inactive
C[C@H](CO)N1C[C@H](C)[C@H](CN(C)Cc2ccccc2)Oc2ccc(NS(=O)(=O)c3cn(C)cn3)cc2C1=O,inactive,inactive,inactive
Oc1ccc(C2Oc3cc(O)cc(O)c3CC2O)cc1 (stereo not given),inactive,inactive,inactive
COc1cc([C@@H]2c3cc4c(cc3[C@@H](O[C@@H]3O[C@@H]5CO[C@@H](C)O[C@H]5[C@H](O)[C@H]3O)[C@H]3COC(=O)[C@H]23)OCO4)cc(OC)c1O,active,active,active
C[C@H](CO)N1C[C@H](C)[C@@H](CN(C)S(C)(=O)=O)Oc2ncc(C#CCN(C)C)cc2C1=O,inactive,inactive,inactive
Cn1nnc2c(N3CCC(O)CC3)ncnc21,inactive,inactive,inactive
COCCNC(=O)C[C@H]1C[C@@H]2c3cc(NC(=O)CN(C)C)ccc3O[C@@H]2[C@@H](CO)O1,inactive,inactive,inactive
CCN(CC)CCS(=O)(=O)[C@@H]1CCN2C(=O)c3coc(n3)CC(=O)C[C@H](O)/C=C(C)/C=C\CNC(=O)/C=C/[C@@H](C)[C@H](C(C)C)OC(=O)[C@@H]12,inactive,inactive,active
CCCNC(=O)N1C[C@]2(CN(C2)S(=O)(=O)c2ccccc2)c2c(n(c3cc(ccc23)OC)C)[C@H]1CO,inactive,active,inactive
Cc1noc(C)c1NC(=O)Nc1cccc2c1O[C@@H](CN(C)Cc1ccc(Cl)c(Cl)c1)[C@H](C)CN([C@H](C)CO)C2=O,inactive,inactive,inactive
C[C@@H]1CN([C@@H](C)CO)C(=O)Cc2cc(NC(=O)Cc3ccccc3)ccc2O[C@@H]1CN(C)S(=O)(=O)c1ccccc1,inactive,inactive,inactive
COCC(=O)Nc1ccc2c(c1)OC[C@H](C)N(C(=O)Cc1cccnc1)C[C@H](C)[C@@H](OC)CN(C)C2=O,inactive,inactive,inactive
Cc1ccc(S(=O)(=O)N2C[C@@H](O)COC[C@H]3O[C@@H](CC(=O)NCCN4CCCCC4)CC[C@@H]32)cc1,inactive,inactive,inactive
COc1cc(C2Oc3cc(C4Oc5cc(O)cc(O)c5C(=O)C4O)ccc3OC2CO)ccc1O (stereo not given),inactive,inactive,inactive
CC[C@@H](O[Si](C#C[Si](C(C)C)(C(C)C)C(C)C)(C(C)C)C(C)C)c1cn([C@H](CO)Cc2ccccc2)nn1,inactive,inactive,inactive
NS(=O)(=O)c1cc2c(cc1Cl)NC(C1CC3C=CC1C3)NS2(=O)=O (stereo not given),inactive,inactive,inactive
NC1CCC(O)CC1 (stereo not given),inactive,inactive,inactive
C[C@H](CO)N1C[C@H](C)[C@H](CN(C)C(=O)NC2CCCCC2)Oc2ccc(NC(=O)C3CC3)cc2CC1=O,inactive,inactive,inactive
Cc1ccc(C(=O)Nc2ccc(S(=O)(=O)O)c3cc(S(=O)(=O)O)cc(S(=O)(=O)O)c23)cc1NC(=O)c1cccc(NC(=O)Nc2cccc(C(=O)Nc3cc(C(=O)Nc4ccc(S(=O)(=O)O)c5cc(S(=O)(=O)O)cc(S(=O)(=O)O)c45)ccc3C)c2)c1,inactive,inactive,inactive
CNC[C@@H]1OCCCC[C@H](C)Oc2ccc(NC(=O)Nc3ccc(C(F)(F)F)cc3)cc2C(=O)N([C@H](C)CO)C[C@@H]1C,inactive,inactive,inactive
Cc1noc(C)c1NC(=O)N(C)C[C@H]1Oc2c(NC(=O)c3ccncc3)cccc2C(=O)N([C@@H](C)CO)C[C@H]1C,inactive,inactive,inactive
COc1ccc(-c2cnc3c(c2)C(=O)N([C@H](C)CO)C[C@H](C)[C@H](CN(C)S(=O)(=O)c2ccc(OC)cc2)O3)cc1,inactive,inactive,inactive
CCCC#Cc1cnc2c(c1)C(=O)N([C@@H](C)CO)C[C@@H](C)[C@H](CN(C)S(=O)(=O)c1cn(C)cn1)O2,inactive,inactive,inactive
CNC(=O)Cn1c(=O)c2c(OC)c(C)cnc2n(C)c1=O,inactive,inactive,inactive
C[C@@H]1CN([C@H](C)CO)C(=O)c2cc(N(C)C)ccc2O[C@@H](C)CCCCO[C@H]1CN(C)S(C)(=O)=O,inactive,inactive,inactive

Compound,cytotoxicity call (HSkMC),cytotoxicity call (HepG2),growth inhibition call (S. aureus RN4220)
Cc1cc(C(=O)Nc2cccc3c2O[C@@H](CN(C)S(=O)(=O)c2ccc(Cl)cc2)[C@H](C)CN([C@H](C)CO)C3=O)n(C)n1,inactive,inactive,inactive
C[C@@H]1CCCCO[C@H](CN(C)C(=O)Nc2cccc3ccccc23)[C@@H](C)CN([C@@H](C)CO)C(=O)c2cc(NS(=O)(=O)c3ccccc3)ccc2O1,inactive,inactive,inactive
NC(=S)c1cnc(-c2ccncc2)nc1N,inactive,inactive,inactive
O=C(C[C@@H]1CC[C@@H]2[C@H](COC[C@H](O)CN2C(=O)c2cccnc2)O1)NCC1CC1,inactive,inactive,inactive
COc1ccc(S(=O)(=O)N2C[C@@H](O)COC[C@H]3O[C@H](CC(=O)NCCCN4CCOCC4)CC[C@@H]32)cc1,inactive,inactive,inactive
C[C@@H]1CN([C@@H](C)CO)C(=O)c2cc(NC(=O)Nc3ccccc3)ccc2O[C@@H](C)CCCCO[C@H]1CN(C)S(=O)(=O)c1ccccc1,inactive,inactive,inactive
Cc1ccc(S(=O)(=O)NCC[C@H]2CC[C@H](NS(=O)(=O)c3ccccc3Cl)[C@H](CO)O2)cc1,inactive,inactive,inactive
Cc1csc2ncnc(Cl)c12,inactive,inactive,inactive
C[C@H](CO)N1C[C@H](C)[C@H](CN(C)C(=O)c2ccccc2)OCCCC[C@H](C)Oc2ccc(NS(=O)(=O)c3ccccc3)cc2C1=O,inactive,inactive,inactive
COc1ccc2c3c([nH]c2c1)[C@@H](CO)N(Cc1ccc(cc1)Cl)C[C@]13CN(CCc2ccccc2)C1,active,active,active
C[C@@H]1CN([C@H](C)CO)C(=O)Cc2cc(NC(=O)CCN3CCOCC3)ccc2O[C@@H]1CN(C)S(=O)(=O)c1cn(C)cn1,inactive,inactive,inactive
OC[C@H]1O[C@H](O[C@H]2O[C@H](CO)[C@@H](O)[C@H](O)[C@H]2O)[C@H](O)[C@@H](O)[C@@H]1O,inactive,inactive,inactive
O=C(O)[C@H](O)[C@@H](O)[C@H](O[C@@H]1O[C@H](CO)[C@H](O)[C@H](O)[C@H]1O)[C@H](O)CO,inactive,inactive,inactive
C[C@@H]1CCCCO[C@@H](CN(C)CC2CCCCC2)[C@H](C)CN([C@H](C)CO)C(=O)c2cc(NC(=O)CCC(F)(F)F)ccc2O1,inactive,inactive,inactive
Cc1noc(C)c1S(=O)(=O)N(C)C[C@H]1OCCCC[C@H](C)Oc2ccc(NC(=O)Nc3ccccc3)cc2C(=O)N([C@H](C)CO)C[C@H]1C,inactive,inactive,inactive
O=C(C[C@@H]1CC=CCC[C@@H](Cc2ccc(F)cc2)C(=O)OC[C@H](Cc2c[nH]c3ccccc23)NC1=O)N[C@@H](CO)Cc1ccccc1,inactive,active,inactive
CN1CCN(C(=O)C[C@@H]2C[C@@H]3c4cc(NS(=O)(=O)c5ccc(F)cc5)ccc4O[C@@H]3[C@@H](CO)O2)CC1,inactive,inactive,inactive
C[C@H](CO)N1C[C@H](C)[C@@H](CN(C)CC2CCCCC2)Oc2c(NC(=O)c3cnccn3)cccc2C1=O,inactive,inactive,inactive
COc1ccc(-c2coc3c(O)c(O)c(OC)cc3c2=O)cc1,inactive,active,inactive
COc1ccc(NC(=O)Nc2ccc3c(c2)C(=O)N([C@@H](C)CO)C[C@@H](C)[C@@H](CN(C)C(=O)NC2CCCCC2)OCCCC[C@@H](C)O3)cc1,active,inactive,inactive
O=C(C[C@@H]1CC[C@H]2[C@@H](COC[C@@H](O)CN2S(=O)(=O)c2ccc(Oc3ccccc3)cc2)O1)NC1CCC1,inactive,inactive,inactive
C[C@@H]1CCCCO[C@H](CN(C)S(=O)(=O)c2ccc(F)cc2)[C@@H](C)CN([C@H](C)CO)C(=O)c2cc(NC(=O)Cc3ccccc3)ccc2O1,inactive,active,inactive
C[C@H](CO)N1C[C@H](C)[C@H](CN(C)C(=O)Nc2ccc3c(c2)OCO3)Oc2ccc(NC(=O)Nc3ccc(C(F)(F)F)cc3)cc2CC1=O,inactive,inactive,inactive
C[C@@H]1CN([C@H](C)CO)C(=O)c2cc(NC(=O)Nc3ccccc3)ccc2O[C@@H](C)CCCCO[C@@H]1CN(C)Cc1ccccc1,inactive,active,inactive
COc1ccc(CN(C)C[C@@H]2Oc3c(NS(=O)(=O)c4c(C)noc4C)cccc3C(=O)N([C@@H](C)CO)C[C@@H]2C)cc1,inactive,inactive,inactive
C=CCN1CCC[C@@H]1C(=O)O,inactive,inactive,inactive
C[C@H]1CN([C@@H](C)CO)C(=O)Cc2cc(NC(=O)C3CC3)ccc2O[C@H]1CN(C)S(=O)(=O)c1cccs1,inactive,inactive,inactive
